The campaign covered roughly 280,000 compounds. About 1,100 (0.39%) were called active. The inconclusive results got no clear call from the source; some entries with a clear call stand among them for comparison. Calls come from the whole dose curve; as a rule, active = well fitted inhibition curve with a large enough effect; inconclusive = small, poorly fitted or top-dose-only effect, or effect the other way; inactive = flat fitted curve, though single readings scatter. Potencies of inconclusive entries are left out as doubtful fits.
biological target: Microtubule-associated protein tau (Homo sapiens) (UniProt P10636); assay: qHTS for Inhibitors of Tau Fibril Formation, Fluorescence Polarization; conditions: K18 P301L tau heparin fibrillization, Alexa594 FP, 6 h; series mostly up to 57.7 µM; activity, negative = inhibition: at the top concentration; note: nearly all actives have a fitted effect of over 55% in size
In short: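 Compound effects on tau fibrillization are measured by Alexa 594 fluorescence polarization (ex 555, em 632 nm). K18 P301L tau is used at 15 uM with 0.24 uM labeled tracer, and 20 uM heparin induces aggregation over 6 hr at 37 C.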
% is set by controls: 0 for no effect and ±100 for the full control effect; potency is the fitted concentration of half-maximal effect; tags give direction and shape of the fitted curve.

UniProt P10636, sequence (P10636 whole entry, looked up): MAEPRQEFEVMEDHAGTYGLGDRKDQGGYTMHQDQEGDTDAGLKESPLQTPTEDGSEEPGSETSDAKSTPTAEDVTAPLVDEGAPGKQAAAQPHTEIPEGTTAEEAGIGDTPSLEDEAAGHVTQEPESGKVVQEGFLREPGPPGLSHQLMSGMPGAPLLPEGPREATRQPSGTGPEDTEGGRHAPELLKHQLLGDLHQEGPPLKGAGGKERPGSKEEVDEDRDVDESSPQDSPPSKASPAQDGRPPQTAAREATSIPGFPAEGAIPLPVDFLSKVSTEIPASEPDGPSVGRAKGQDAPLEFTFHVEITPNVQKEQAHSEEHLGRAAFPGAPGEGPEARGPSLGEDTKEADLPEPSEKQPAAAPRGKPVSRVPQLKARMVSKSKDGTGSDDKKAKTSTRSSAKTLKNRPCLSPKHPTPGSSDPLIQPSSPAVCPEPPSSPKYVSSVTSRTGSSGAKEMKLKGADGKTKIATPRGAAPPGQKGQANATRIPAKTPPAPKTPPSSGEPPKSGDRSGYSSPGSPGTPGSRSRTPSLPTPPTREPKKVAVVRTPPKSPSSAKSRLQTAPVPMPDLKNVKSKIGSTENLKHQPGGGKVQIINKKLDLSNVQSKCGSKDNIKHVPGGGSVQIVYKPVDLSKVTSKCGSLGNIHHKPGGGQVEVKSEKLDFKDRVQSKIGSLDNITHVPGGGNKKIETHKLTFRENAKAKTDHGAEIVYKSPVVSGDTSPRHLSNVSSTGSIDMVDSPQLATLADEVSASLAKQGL

Structure (SMILES) | activity, negative = inhibition | Potency
O=C(COc1ccc2ccccc2c1)NNC(=O)Cc1ccccc1 | inactive: 3.1% | 
CC(=Nc1ccc(O)cc1)c1sc2ccccc2c1O | inactive: 13.3% | 
O=C(Oc1c(CN2CCOCC2)cc(Cl)c2cccnc12)c1ccccc1Cl | inactive: 3.87% | 
CCOc1ccc(CCNc2ncnc3onc(C)c23)cc1OCC | inactive: -2.77% | 
CC(=O)c1cccc(NC(=O)C(OC(=O)c2cccc(S(=O)(=O)N(C)c3ccccc3)c2)c2ccccc2)c1 (configuration not stated) |  | inconclusive [inhibitor, partial curve, poor fit]
O=C(NCc1cccnc1)c1cccc(C(F)(F)F)c1 | inactive: 2.11% | 
CCOc1cc(/C=N/NC(=O)c2c(-c3ccccc3)noc2C)ccc1O | inactive: -16.5% | 
CC(C)c1ccc(CC(C)C2C3=C(CCCC3=O)OC3=C2C(=O)CCC3)cc1 (configuration not stated) |  | inconclusive [activator, single point]
Cc1ccc2[nH]c(=O)c(CN(CCCO)S(=O)(=O)c3cccc4nsnc34)cc2c1 |  | inconclusive [inhibitor, full curve, poor fit]
CCOc1ccc(-c2nnc3ccc(SCC(=O)N4CCCCC4)nn23)cc1 | inactive: -5.19% | 
CC(C)(C)c1ccc(OCCNC(=S)Nc2ccccc2)cc1 | inactive: 2.53% | 
CCN(CC)S(=O)(=O)c1ccc(NC(=O)c2cc(-c3cccs3)nc3ccccc23)cc1 |  | inconclusive [inhibitor, partial curve, poor fit]
CC(=O)Nc1ccc(Nc2nc(C)c([N+](=O)[O-])c(N(C)c3ccccc3)n2)cc1 |  | inconclusive [activator, single point]
CCc1ccc(OCC(=O)Nc2c(C(=O)c3ccc(Br)cc3)oc3ccccc23)cc1 |  | inconclusive [inhibitor, partial curve]
COC(=O)c1[nH]c2cc(OC)c(OC)cc2c1NC(=O)c1cccc(OC)c1 |  | inconclusive [activator, partial curve]
CC1=C(\C=C/C(C)=C/C=C\C(C)=C\C(=O)O)C(C)(C)CCC1 |  | inconclusive [inhibitor, single point]
N#Cc1c(Cl)cccc1Oc1ccc(S(=O)(=O)Nc2ccccc2)cc1 |  | inconclusive [inhibitor, partial curve]
O=C(CSc1n[nH]c(-c2ccccc2)n1)Nc1ccc(Br)cn1 |  | inconclusive [inhibitor, single point]
C/C(=N/Nc1nc(-c2ccccc2F)nc2ccccc12)c1ccccc1O | inactive: 6.37% | 
O=C(CCCCCn1c(=O)[nH]c2ccccc2c1=O)N1CCN(Cc2ccc3c(c2)OCO3)CC1 |  | inconclusive [activator, single point]
CC1(C)Cc2c(c(N3CCOCC3)nc3sc4c(NCc5ccco5)nnnc4c23)CS1 | inactive: 0.971% | 
COC(=O)CSCc1nc2ccccc2[nH]c1=O |  | inconclusive [inhibitor, partial curve]
C/C(CC(=O)N1CCN(C=O)CC1)=N\NC(=O)c1cc2ccccc2cc1O |  | inconclusive [inhibitor, single point]
COC(=O)c1nn(-c2ccccc2)c(Sc2ccc(OC)cc2)c1/C=N/O |  | inconclusive [inhibitor, single point]

Structure (SMILES) | activity, negative = inhibition | Potency
O=C(/C=C/c1cccc(Cl)c1)NCCc1ccccc1 | inactive: 0.802% | 
COc1cc(NC(=O)c2ccc(OC)c([N+](=O)[O-])c2)ccc1NC(=O)c1cccs1 |  | inconclusive [inhibitor, full curve]
O=C(Nc1ccc(Cl)cc1)C(NS(=O)(=O)c1cccs1)c1ccccc1 (configuration not stated) | inactive: -10.4% | 
COc1ccc(NC(=O)c2c(NC(=O)CCC(=O)O)sc3c2CCCCC3)cc1 | inactive: 7.5% | 
Cc1cc(NC(=O)CCNS(=O)(=O)c2cccc3nsnc23)ccc1Br |  | inconclusive [inhibitor, partial curve, poor fit]
COCCCN(C(=S)Nc1cc(Cl)cc(Cl)c1)C(C)c1ccncc1 (configuration not stated) | inactive: -4.74% | 
CC(=O)c1cccc(NC(=O)Nc2csc3c2CCCC3)c1 |  | inconclusive [inhibitor, single point]
O=[N+]([O-])c1ccc(NC(=S)NCCc2ccc(Cl)cc2)cc1 |  | active: 12.6 µM
COc1ccc(CNC(=O)c2ccc3nc(-c4ccc(F)cc4)c(-c4ccc(F)cc4)nc3c2)cc1 |  | inconclusive [inhibitor, single point]
c1ccc(C(NCCNC(c2ccccc2)c2ccccc2)c2ccccc2)cc1 | inactive: -10.7% | 
Cc1nnsc1SCCNC(=O)Nc1ccc(Cl)cc1 |  | inconclusive [inhibitor, partial curve, poor fit]
COc1ccc(-c2cc(=O)c3c(O)cc(O)cc3o2)cc1 |  | inconclusive [inhibitor, single point]
CCSc1cnc(-c2ccccc2)n1CC | inactive: 0.0109% | 
COc1ccc(Nc2sc(C(=O)c3ccc(Cl)cc3)c(N)c2C(=O)Nc2ccccc2OC)cc1 | inactive: -1.75% | 
CCOc1cccc2sc(N(Cc3cccnc3)C(=O)c3ccc(C#N)cc3)nc12 |  | inconclusive [inhibitor, single point]
CC(C)(C)OC(=O)N1CCC[C@H]1c1nnc(SCc2ccc(Cl)cc2Cl)o1 |  | inconclusive [inhibitor, single point]
C/C(CC(=O)Nc1cc(C)ccn1)=N\NC(=O)C(=O)Nc1cccc(C)c1 |  | inconclusive [activator, single point]
O=C(Nc1ccccc1)C1=C(c2ccccc2)S(=O)(=O)CCS1(=O)=O |  | active: 22.4 µM
O=C(O)c1ccc(B(O)O)cc1 | inactive: 1.94% | 
CCc1ccc(-c2cc(C(=O)N/N=C/c3ccco3)[nH]n2)cc1 |  | inconclusive [inhibitor, full curve]
CCOC(=O)C1=C(Nc2ccccc2)OCC1=O |  | inconclusive [inhibitor, single point]
O=C(Nc1ccc([N+](=O)[O-])cc1)Nc1ccc(OC(F)F)c(Cl)c1 |  | active: 10 µM
Cc1cccc(NC(=O)CS(=O)(=O)Cc2ccccc2)n1 | inactive: -7.47% | 
